83 variants from the RNAGym collection of RNA variant scans (doi:10.1073/pnas.2313332121) can be followed below.

The chains are these.
B1: TPR 5TU (parent)
chain: GGAUCUUCUCGAUCUAACAAAAAAGACAAAUCUGCCACAAAGCUUGAGAGCAUCUUCGGAUGCAGAGGCGGCAGCCUUCGGUGGCGCGAUAGCGCCAACGUUCUCAACUAUGACACGCAAAACGCGUGCUCCGUUGAAUGGAGUUUAUCAUG

Variants at the background level are over-represented here.

The variants in this data set derive from B1. In words: polymerase ribozyme fitness, log enrichment relative to wild type (log ratio); higher = more active; in vitro selection for triplet polymerase activity. In outline:
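One round of in vitro selection, in triplicate, was applied to PCR-built, transcribed mutant libraries of each subunit of a heterodimeric triplet polymerase ribozyme. The steps were annealing with a biotinylated primer, partner subunit and triplets, incubation frozen at −7 °C, gel excision of extended constructs, streptavidin-bead capture and RT-PCR. Fitness is the logarithm, base 2, of genotype enrichment over wild-type enrichment from inverse-variance-weighted replicate averages of Illumina-sequenced inputs and outputs, keeping genotypes with ≥10 input reads and ≥1 read per output.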
For the variant A47C A49G, the “polymerase ribozyme fitness (log ratio)” value is -0.809.
G46C C87U C93A C116A C125U: the “polymerase ribozyme fitness (log ratio)” value is no more than -4.2.
Regarding A47C C57G C93U U151G, the “polymerase ribozyme fitness (log ratio)” value was no more than -4.2.
The figure for G46C G59A G67C G80A G83U A147U is no more than -4.2; for G46A C93U it is -1.21; for U45A G65A G86U it is no more than -4.2.
Take A47G G68U U78C C96U A122G U134A: the “polymerase ribozyme fitness (log ratio)” value is no more than -4.2.
For the variant G48A C87U, the “polymerase ribozyme fitness (log ratio)” value is -0.447.
As to A47U G83A U102C G117A C131G A142G G152C, the “polymerase ribozyme fitness (log ratio)” value is no more than -4.2.
For U45A G84U U144C, the “polymerase ribozyme fitness (log ratio)” value is no more than -4.2.
For G48A A49C C51U C103G A110U, the “polymerase ribozyme fitness (log ratio)” value is no more than -4.2.
On to A47C U61G G65C C76A C87U U134G G141U A142U, for which the “polymerase ribozyme fitness (log ratio)” value was no more than -4.2.
Turning to G46C U61G G81C C114U C116G A147G, the “polymerase ribozyme fitness (log ratio)” value was no more than -4.2.
G48C C76A U90G U130G: the “polymerase ribozyme fitness (log ratio)” value was no more than -4.2.
The figure for A47C G48A U61A U82C A98U C123A U139A U144G U148A is no more than -4.2; for A49C C57A C99U it is no more than -4.2; for A49C C87A C96G A122G C129U it is no more than -4.2.
U45A U53A C57A C79G G83C C85U U139G U144A: the “polymerase ribozyme fitness (log ratio)” value is no more than -4.2.
With G48A G59A, the “polymerase ribozyme fitness (log ratio)” value is -0.452.
Turning to G48C G50U G58U G83C C95G U101G G128U, the “polymerase ribozyme fitness (log ratio)” value is no more than -4.2.
On to A47C C57A C79U A150G, for which the “polymerase ribozyme fitness (log ratio)” value is no more than -4.2.
Take G48U U55A C96G A115U: the “polymerase ribozyme fitness (log ratio)” value was -4.16.
With G46U A52G C85A U127C G143A the figure was no more than -4.2.
As to G46C G59A U82A C85G A110C A113U G126U G128A, the “polymerase ribozyme fitness (log ratio)” value was no more than -4.2.
With G48C C76U the figure was -3.15; with G46A G84C C108A, no more than -4.2; with A47C G50C U53A A89G A106U A120C G136A, no more than -4.2.
The figure for A49C A52G U77G U90A G141U is no more than -4.2; for G46A U55G C79A C85G A97U it is no more than -4.2.
With A49C A66C G81C G83U C99U U101G C108U the figure was no more than -4.2; with G46C C96U A98U A106G, -0.573; with A49C C51G A64U G88U C95G C99U U101G C149A, no more than -4.2.
In the case of G48A G62A C96A C132G U134G A147C, the “polymerase ribozyme fitness (log ratio)” value was no more than -4.2.
The figure for G48C U53C C87U U145C is -2.69; for G48A C108G U134A it is no more than -4.2; for A49C C51G G136C it is no more than -4.2.
For G48A C87G A91U, the “polymerase ribozyme fitness (log ratio)” value is no more than -4.2.
With A47C C95U C96U C118U C131U the figure was -1.83.
U45G G84U: the “polymerase ribozyme fitness (log ratio)” value is -1.97.
With U45A G80C C87A A91U A142C the figure was no more than -4.2; with G48A C57A U127A A142G G143A, no more than -4.2.
With A47G G88A C118U U127G U139A U145G the figure was no more than -4.2; with G48A G59U G94A C114A C125A, no more than -4.2; with G46A A60C G67C U77G C79A C93G A113C, no more than -4.2.
The figure for G48C A49G A113G is no more than -4.2.
G46A G84A A119C G136A A150G: the “polymerase ribozyme fitness (log ratio)” value was -3.68.
As to A47U G71A C87U G140A U148G, the “polymerase ribozyme fitness (log ratio)” value was no more than -4.2.
With G46C G48C C85G U135A, the “polymerase ribozyme fitness (log ratio)” value was no more than -4.2.
Take A49C C85A C93G C103A C149G: the “polymerase ribozyme fitness (log ratio)” value is no more than -4.2.
With U45A G67C U90C G94C C114U A119U A138C G140U G141C, the “polymerase ribozyme fitness (log ratio)” value is no more than -4.2.
Regarding A47G G83A U90C A115C A121U, the “polymerase ribozyme fitness (log ratio)” value is no more than -4.2.
Consider A47C A52U G68C C93A G124A, for which the “polymerase ribozyme fitness (log ratio)” value was no more than -4.2.
As for G46A C96U G141A G143U, the “polymerase ribozyme fitness (log ratio)” value is no more than -4.2.
For A47G C85A G100A A120C G133U, the “polymerase ribozyme fitness (log ratio)” value was no more than -4.2.
In the case of A47C C57A C93U, the “polymerase ribozyme fitness (log ratio)” value is -1.3.
As for A49C C75G A91U A150G, the “polymerase ribozyme fitness (log ratio)” value was no more than -4.2.
On to A47C C93A A106U U109G, for which the “polymerase ribozyme fitness (log ratio)” value was no more than -4.2.
G46C C87U U101G U109G: the “polymerase ribozyme fitness (log ratio)” value is no more than -4.2.
On to G46U C87G A89G C95G C123G U130A, for which the “polymerase ribozyme fitness (log ratio)” value was no more than -4.2.
As to G48U G50U G59A C96U G140U, the “polymerase ribozyme fitness (log ratio)” value is no more than -4.2.
U45A U102C C105U A119C G143A: the “polymerase ribozyme fitness (log ratio)” value was no more than -4.2.
The figure for U45A U77G G84A A115U A138C is no more than -4.2; for G46U C72A U90G A97G G100A U104A A107G G124C it is no more than -4.2.
The figure for G48C C54U G58C C87U C123U is -1.05; for G46U G48U G74U U82G it is no more than -4.2; for G46C G59C G88A it is no more than -4.2.
The figure for A47G A52U G68U C79A C93U C99A G141C A142G G143U is no more than -4.2.
U45A U61A C76A A91C U102A A122U: the “polymerase ribozyme fitness (log ratio)” value was no more than -4.2.
With A47U C76A A91U C99A C116A, the “polymerase ribozyme fitness (log ratio)” value is no more than -4.2.
As to G48C A113C U148C, the “polymerase ribozyme fitness (log ratio)” value is no more than -4.2.
With G48C A91G G141U the figure was no more than -4.2; with A47U A64G G67A, no more than -4.2; with A47G U53G C93G U111C A137C U146G, no more than -4.2.
With G46C U55A C76U A89C U104A, the “polymerase ribozyme fitness (log ratio)” value was no more than -4.2.
With G46U U55A U61G G86C A89G A91G C93U U127C G128A A142C the figure was no more than -4.2; with U45C G94U C96G C132U, no more than -4.2; with A47G A49G G68U, no more than -4.2.
The figure for A47U A66G G67A G86C C95G C96G G124U is no more than -4.2; for U45C C79A A110C C118U A120G C131G it is no more than -4.2; for G48A C76A G94C A106G U127A G141C it is no more than -4.2.
Regarding G46C G50U A52C A60U G80C C95U A150G, the “polymerase ribozyme fitness (log ratio)” value was no more than -4.2.
For the variant A47G C87U, the “polymerase ribozyme fitness (log ratio)” value stood at 0.257.
Turning to U45A U111G G133C, the “polymerase ribozyme fitness (log ratio)” value is no more than -4.2.
